The supplement of paper PMC3334620
Over roughly 33,000 sequences, “E-score (-0.5 to 0.5)” has its median near -0.036; the highest 2% begin near 0.37. Some of the results follow.

Biological target: T1, Yer064c (UniProt P40041)
T1 sequence: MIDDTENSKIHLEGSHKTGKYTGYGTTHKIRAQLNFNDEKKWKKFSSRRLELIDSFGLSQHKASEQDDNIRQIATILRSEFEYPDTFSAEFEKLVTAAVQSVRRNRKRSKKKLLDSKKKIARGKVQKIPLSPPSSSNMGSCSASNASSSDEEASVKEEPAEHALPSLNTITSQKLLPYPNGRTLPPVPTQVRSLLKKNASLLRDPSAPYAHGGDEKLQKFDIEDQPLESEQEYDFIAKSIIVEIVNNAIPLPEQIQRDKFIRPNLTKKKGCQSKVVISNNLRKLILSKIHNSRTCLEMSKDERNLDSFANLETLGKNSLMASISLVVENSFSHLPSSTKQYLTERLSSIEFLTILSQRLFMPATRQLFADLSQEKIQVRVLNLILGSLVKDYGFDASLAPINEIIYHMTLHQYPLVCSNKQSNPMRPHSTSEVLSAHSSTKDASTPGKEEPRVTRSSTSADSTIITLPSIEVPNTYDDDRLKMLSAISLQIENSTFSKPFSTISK
Assay: PBM E-score (8-mer binding enrichment) (E-score (-0.5 to 0.5)); higher = stronger / more preferred TF binding; most listed sequences are background and not binding sites
Details: protein concentration: 200 nM; construct: GST-full length
Method in brief: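 PURExpress in vitro transcription/translation supplied GST-tagged yeast transcription factors, either full-length or DNA-binding domain. Applied at about 100-200 nM to universal all-10-mer Agilent arrays double-stranded by primer extension, the bound protein was detected with fluorescent anti-GST. E-scores, modified Wilcoxon-Mann-Whitney statistics, were given by the Universal PBM Analysis Suite to ungapped eight-base words pooled with their reverse complements after masliner normalisation.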

Sequence | PBM E-score
GCACAATA | -0.00738
ATTGGAAG | 0.0397
ATGTATCC | -0.0288
GATGCGAA | 0.00178
TGTCGAAA | 0.0448
AGAAACTG | -0.00757
GGCAATAA | 0.0181
CTCCTGCC | -0.113
CGACTTAA | 0.232
CGAACTGC | -0.181
AGTAAGGG | -0.00318
ATCTAGTG | 0.0154
CAATAGTG | 0.0438
GGTGGAGA | -0.114
CAGATTGA | 0.107
CTGGTGAC | 0.194
GGAAAGCA | -0.12
GATCAAGC | 0.0352
AGGGGTGG | -0.0803
CAAGACTG | 0.175
CCGCCAAG | -0.149
CACACGTG | 0.021
GAGCACCA | -0.092
CATCCGTA | 0.0341
ACAAGACG | -0.027

Sequence | PBM E-score
CGCCTGGC | -0.0853
GAAGGTGA | 0.0997
ACTACTGA | 0.316
AGTGCTTC | -0.031
GGGATGAA | -0.0864
AAAACTTC | -0.129
AGCATTAC | -0.106
AAAGTATC | -0.108
ACTGCCGG | -0.00685
ATCGCCTC | -0.0199
ATAAACCA | 0.0471
AATCTCCG | 0.0695
TGCCTGAA | 0.141
ACTCACAG | 0.353
CTCCGATC | -0.141
CTCGGCCC | -0.206
AGGAATAG | 0.0464
GCTGGAAA | -0.0307
GAGGCATA | -0.252
CATTTCAA | 0.0522
CGCGAACG | 0.0374
AGCTGACC | -0.078
AAACGATC | -0.00507
GAATAGGC | -0.269
CGGCCTCC | -0.281

Sequence | PBM E-score
AAGGCCGA | 0.0262
ACCTACGC | -0.168
AGTAACAT | -0.0463
AGACGTAG | -0.0718
ATGGACGC | -0.174
AGGGCACA | -0.184
GATCCTCA | 0.0474
GGGATCCC | -0.276
ATGCCAGC | -0.325
CAGTCTCA | 0.269
AGCATGAT | 0.26
ATCTCAAA | 0.0471
GCGACAAA | -0.0918
ACACTGAA | 0.122
TGTGGCAA | 0.111
GACTCCAA | 0.418
CAAGACTA | 0.329
CATGGGAG | -0.123
GATATCAA | -0.031
GAACTGCA | -0.0828
GCTACAGA | -0.14
CCTGACCA | 0.00016
CGCGGTAG | -0.0407
CAGACTTA | 0.0931
AGATTGAA | 0.113

Sequence | PBM E-score
AACATACC | 0.0383
TCTCCGAA | -0.0732
TCATACCA | 0.21
ACAGGATA | -0.158
GCGGTAAA | 0.0938
ACGCTCCA | -0.218
ATACCTCC | -0.133
CCCGCCCG | 0.0526
ACCTCCCC | -0.0594
ATCTGATA | -0.201
ATTGTCTA | -0.0194
GCAATCGC | -0.105
AATGGCTC | 0.283
CGTAGGCA | -0.321
CTAATTGA | 0.183
CCACAATA | -0.113
ATAACAAC | -0.0108
ATATTAAC | 0.02
GCTCGTTA | -0.101
CAAACGTC | -0.134
CCTAACTC | -0.0235
CTCGGACA | -0.146
GCATACCC | -0.0393
CTCTGCCA | -0.0828
ATACAGGG | 0.0392

Sequence | PBM E-score
CTCTACTA | 0.0548
CAGTCTCG | 0.0971
ATACGCGA | -0.0224
AATACGAT | 0.0537
CCGATGCA | -0.21
GTTGGCGA | -0.0506
CCGGATCA | -0.0497
CCTGTGCC | -0.235
GATAGCGA | -0.0952
ATACCGCA | 0.0157
CTGGTCCA | -0.238
AGAAGAAG | -0.21
CTCAGGCA | 0.122
CCAGCTAG | -0.14
GCCGCAAC | -0.147
ATACAGAG | -0.146
ATCAACGC | 0.00921
GGTGCCCA | -0.198
AGTACGTG | -0.00532
AAAATCCC | -0.147
GCTGACAA | 0.00774
CTTGCAAC | 0.106
AAGCCTGA | -0.0685
GTACTAGA | 0.0831
ACTTACAG | 0.0708

Sequence | PBM E-score
CGCGGTCA | -0.0431
ACATCGGG | -0.194
GAACCTAC | -0.123
ACTTAGTA | 0.162
GCCCGAAC | -0.288
ACTCCGTC | 0.162
AAGTGGGA | 0.0265
CTCTCGGC | -0.194
AGCTAGCC | -0.101
CCTCAACC | -0.0921
GGAAGGAA | -0.188
AGTCCCTC | 0.0318
AAGGTATG | -0.134
ATTCGAGA | 0.00617
ACTTGTGA | 0.235
ACCCACCC | 0.111
CTCCCGCA | -0.13
GACATCAA | 0.00396
GGTAGTAC | 0.0103
AACACAAG | -0.12
AGAAAGCA | 0.0508
TGAAAACA | -0.0624
ATCTATAC | 0.178
CCACTCCC | -0.172
AACACAGC | 0.0995

Sequence | PBM E-score
CGGCTTGC | -0.134
GGTTGGGA | 0.00893
CAGGCGGC | 0.0353
CATATCGA | 0.145
CTCAACAC | 0.0907
ACACTTAT | -0.107
CACTTCAG | -0.0132
ACCGTACT | -0.0177
AATCCTCT | -0.0505
ACCGTTGA | 0.0201
CTGACCCC | -0.221
ATCCAGGA | -0.103
CACTACGC | -0.197
GAGCAAAA | -0.246
CAACTGCG | -0.00209
CTCCCTCC | -0.146
TGACTACA | 0.476
AACCATAC | 0.0411
ACATTCGG | -0.0297
GAACAGCC | -0.168
CAGGTAGG | -0.142
AGAGTCAC | 0.485
